Data: paper PMC12820563, “FoxP3 forms a head-to-head dimer in vivo and stabilizes its multimerization on adjacent microsatellites”
The other results are listed elsewhere or left out.

Each sequence was assayed against T1, MBP-FoxP1dN (Mus musculus, UniProt P58462 326-579) (assay: PD-seq (MBP pull-down with sequencing); 20 mM Tris-HCl pH 7.5, 100 mM NaCl, 1.5 mM MgCl2, 0.4 uM protein, 0.1 uM dsDNA library, 30 min, room temperature, amylose pull-down; high values mean tight binding). Conditions: protein: recombinant; tags: His6-MBP; chain copies: 2; dsDNA, one strand shown.
T1 sequence: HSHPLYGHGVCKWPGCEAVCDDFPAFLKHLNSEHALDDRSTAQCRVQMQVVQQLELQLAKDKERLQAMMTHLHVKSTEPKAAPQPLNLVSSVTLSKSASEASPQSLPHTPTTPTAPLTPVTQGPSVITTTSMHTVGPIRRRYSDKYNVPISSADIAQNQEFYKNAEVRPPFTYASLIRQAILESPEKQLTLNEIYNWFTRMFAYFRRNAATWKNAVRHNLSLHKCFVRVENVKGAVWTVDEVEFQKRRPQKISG
Outline: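 Amylose resin was used to capture complexes formed during 30 min at room temperature in Tris pH 7.5 buffer with NaCl and MgCl2 between 0.4 µM His6-MBP-tagged mouse FoxP3 or FoxP1 fragment lacking the N-terminus, expressed in E. coli, and 0.1 µM Klenow-filled double-stranded degenerate DNA library. After three washes, the DNA was released with proteinase K, barcoded by PCR and sequenced on Illumina. Binding is pooled-replicate reads-per-million enrichment, pull-down over input.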

Sequence | binding signal
GATGATTGTTCTCCCAGCTGATGAATTGTTTCACTCGAGTAAACAAATTTTCCTAATCTTTCTGTTCAAGCGCCATCTAC | 1.15 RPM ratio (pull-down/input)
GATGATTGTTCTCCCAGCTGATGAATTCATCTCGTCGAGTAAACAAATTTTCCTAATCTTTCTGTTCAAGCGCCATCTAC | 0.935 RPM ratio (pull-down/input)
GATGATTGTTCTCCCAGCTGATGAATTTTCCGAGTCGAGTAAACAAATTTTCCTAATCTTTCTGTTCAAGCGCCATCTAC | 0.839 RPM ratio (pull-down/input)
GATGATTGTTCTCCCAGCTGATGAATTACGTGTGTCGAGTAAACAAATTTTCCTAATCTTTCTGTTCAAGCGCCATCTAC | 1.14 RPM ratio (pull-down/input)
GATGATTGTTCTCCCAGCTGATGAATTTGAGCTCTCGAGTAAACAAATTTTCCTAATCTTTCTGTTCAAGCGCCATCTAC | 0.775 RPM ratio (pull-down/input)
GATGATTGTTCTCCCAGCTGATGAATTATACCCCTCGAGTAAACAAATTTTCCTAATCTTTCTGTTCAAGCGCCATCTAC | 0.871 RPM ratio (pull-down/input)
GATGATTGTTCTCCCAGCTGATGAATTTAAAAGCTCGAGTAAACAAATTTTCCTAATCTTTCTGTTCAAGCGCCATCTAC | 0.909 RPM ratio (pull-down/input)
GATGATTGTTCTCCCAGCTGATGAATTGCTCCGATCGAGTAAACAAATTTTCCTAATCTTTCTGTTCAAGCGCCATCTAC | 0.965 RPM ratio (pull-down/input)
GATGATTGTTCTCCCAGCTGATGAATTGTTGTAGTCGAGTAAACAAATTTTCCTAATCTTTCTGTTCAAGCGCCATCTAC | 1.71 RPM ratio (pull-down/input)
GATGATTGTTCTCCCAGCTGATGAATTGAACGAGTCGAGTAAACAAATTTTCCTAATCTTTCTGTTCAAGCGCCATCTAC | 0.837 RPM ratio (pull-down/input)
GATGATTGTTCTCCCAGCTGATGAATTACCTGACTCGAGTAAACAAATTTTCCTAATCTTTCTGTTCAAGCGCCATCTAC | 0.916 RPM ratio (pull-down/input)
GATGATTGTTCTCCCAGCTGATGAATTATTGTATTCGAGTAAACAAATTTTCCTAATCTTTCTGTTCAAGCGCCATCTAC | 1.99 RPM ratio (pull-down/input)
GATGATTGTTCTCCCAGCTGATGAATTACAACCGTCGAGTAAACAAATTTTCCTAATCTTTCTGTTCAAGCGCCATCTAC | 1.18 RPM ratio (pull-down/input)
GATGATTGTTCTCCCAGCTGATGAATTGGAGAGGTCGAGTAAACAAATTTTCCTAATCTTTCTGTTCAAGCGCCATCTAC | 0.733 RPM ratio (pull-down/input)
GATGATTGTTCTCCCAGCTGATGAATTCCGAGGATCGAGTAAACAAATTTTCCTAATCTTTCTGTTCAAGCGCCATCTAC | 0.766 RPM ratio (pull-down/input)
GATGATTGTTCTCCCAGCTGATGAATTCGAATCTTCGAGTAAACAAATTTTCCTAATCTTTCTGTTCAAGCGCCATCTAC | 0.84 RPM ratio (pull-down/input)
GATGATTGTTCTCCCAGCTGATGAATTCTCTAACTCGAGTAAACAAATTTTCCTAATCTTTCTGTTCAAGCGCCATCTAC | 0.847 RPM ratio (pull-down/input)
GATGATTGTTCTCCCAGCTGATGAATTGCTTTCATCGAGTAAACAAATTTTCCTAATCTTTCTGTTCAAGCGCCATCTAC | 1.13 RPM ratio (pull-down/input)
GATGATTGTTCTCCCAGCTGATGAATTACCCTGATCGAGTAAACAAATTTTCCTAATCTTTCTGTTCAAGCGCCATCTAC | 0.896 RPM ratio (pull-down/input)
GATGATTGTTCTCCCAGCTGATGAATTTCCAGACTCGAGTAAACAAATTTTCCTAATCTTTCTGTTCAAGCGCCATCTAC | 0.767 RPM ratio (pull-down/input)
GATGATTGTTCTCCCAGCTGATGAATTGCAAACGTCGAGTAAACAAATTTTCCTAATCTTTCTGTTCAAGCGCCATCTAC | 1.24 RPM ratio (pull-down/input)

Sequence | binding signal
GATGATTGTTCTCCCAGCTGATGAATTCTAACACTCGAGTAAACAAATTTTCCTAATCTTTCTGTTCAAGCGCCATCTAC | 0.951 RPM ratio (pull-down/input)
GATGATTGTTCTCCCAGCTGATGAATTTTATGAGTCGAGTAAACAAATTTTCCTAATCTTTCTGTTCAAGCGCCATCTAC | 1.03 RPM ratio (pull-down/input)
GATGATTGTTCTCCCAGCTGATGAATTACACAGTTCGAGTAAACAAATTTTCCTAATCTTTCTGTTCAAGCGCCATCTAC | 1.18 RPM ratio (pull-down/input)
GATGATTGTTCTCCCAGCTGATGAATTACTCCGTTCGAGTAAACAAATTTTCCTAATCTTTCTGTTCAAGCGCCATCTAC | 0.991 RPM ratio (pull-down/input)
GATGATTGTTCTCCCAGCTGATGAATTTATTCTGTCGAGTAAACAAATTTTCCTAATCTTTCTGTTCAAGCGCCATCTAC | 1.12 RPM ratio (pull-down/input)
GATGATTGTTCTCCCAGCTGATGAATTCCATTTCTCGAGTAAACAAATTTTCCTAATCTTTCTGTTCAAGCGCCATCTAC | 0.817 RPM ratio (pull-down/input)
GATGATTGTTCTCCCAGCTGATGAATTGGGTGATTCGAGTAAACAAATTTTCCTAATCTTTCTGTTCAAGCGCCATCTAC | 0.95 RPM ratio (pull-down/input)
GATGATTGTTCTCCCAGCTGATGAATTGATCTCATCGAGTAAACAAATTTTCCTAATCTTTCTGTTCAAGCGCCATCTAC | 1.09 RPM ratio (pull-down/input)
GATGATTGTTCTCCCAGCTGATGAATTGTTAACATCGAGTAAACAAATTTTCCTAATCTTTCTGTTCAAGCGCCATCTAC | 1.34 RPM ratio (pull-down/input)
GATGATTGTTCTCCCAGCTGATGAATTTGGGAGTTCGAGTAAACAAATTTTCCTAATCTTTCTGTTCAAGCGCCATCTAC | 0.877 RPM ratio (pull-down/input)
GATGATTGTTCTCCCAGCTGATGAATTAGCGATATCGAGTAAACAAATTTTCCTAATCTTTCTGTTCAAGCGCCATCTAC | 1.06 RPM ratio (pull-down/input)
GATGATTGTTCTCCCAGCTGATGAATTGTTATATTCGAGTAAACAAATTTTCCTAATCTTTCTGTTCAAGCGCCATCTAC | 1.57 RPM ratio (pull-down/input)
GATGATTGTTCTCCCAGCTGATGAATTAGACTTTTCGAGTAAACAAATTTTCCTAATCTTTCTGTTCAAGCGCCATCTAC | 0.874 RPM ratio (pull-down/input)
GATGATTGTTCTCCCAGCTGATGAATTGGCTGCGTCGAGTAAACAAATTTTCCTAATCTTTCTGTTCAAGCGCCATCTAC | 0.918 RPM ratio (pull-down/input)
GATGATTGTTCTCCCAGCTGATGAATTTAAAGAATCGAGTAAACAAATTTTCCTAATCTTTCTGTTCAAGCGCCATCTAC | 0.944 RPM ratio (pull-down/input)
GATGATTGTTCTCCCAGCTGATGAATTAAACCAGTCGAGTAAACAAATTTTCCTAATCTTTCTGTTCAAGCGCCATCTAC | 0.929 RPM ratio (pull-down/input)
GATGATTGTTCTCCCAGCTGATGAATTTCAGCTCTCGAGTAAACAAATTTTCCTAATCTTTCTGTTCAAGCGCCATCTAC | 0.758 RPM ratio (pull-down/input)
GATGATTGTTCTCCCAGCTGATGAATTAGAATAGTCGAGTAAACAAATTTTCCTAATCTTTCTGTTCAAGCGCCATCTAC | 0.964 RPM ratio (pull-down/input)
GATGATTGTTCTCCCAGCTGATGAATTGTATACCTCGAGTAAACAAATTTTCCTAATCTTTCTGTTCAAGCGCCATCTAC | 1.66 RPM ratio (pull-down/input)
GATGATTGTTCTCCCAGCTGATGAATTCGACAACTCGAGTAAACAAATTTTCCTAATCTTTCTGTTCAAGCGCCATCTAC | 0.902 RPM ratio (pull-down/input)
GATGATTGTTCTCCCAGCTGATGAATTTAAAACCTCGAGTAAACAAATTTTCCTAATCTTTCTGTTCAAGCGCCATCTAC | 0.793 RPM ratio (pull-down/input)

Sequence | binding signal
GATGATTGTTCTCCCAGCTGATGAATTAAGCGATTCGAGTAAACAAATTTTCCTAATCTTTCTGTTCAAGCGCCATCTAC | 0.851 RPM ratio (pull-down/input)
GATGATTGTTCTCCCAGCTGATGAATTGGCTTGTTCGAGTAAACAAATTTTCCTAATCTTTCTGTTCAAGCGCCATCTAC | 0.869 RPM ratio (pull-down/input)
GATGATTGTTCTCCCAGCTGATGAATTAACGACTTCGAGTAAACAAATTTTCCTAATCTTTCTGTTCAAGCGCCATCTAC | 0.861 RPM ratio (pull-down/input)
GATGATTGTTCTCCCAGCTGATGAATTTGGCCCGTCGAGTAAACAAATTTTCCTAATCTTTCTGTTCAAGCGCCATCTAC | 0.801 RPM ratio (pull-down/input)
GATGATTGTTCTCCCAGCTGATGAATTTCTACAGTCGAGTAAACAAATTTTCCTAATCTTTCTGTTCAAGCGCCATCTAC | 0.94 RPM ratio (pull-down/input)
GATGATTGTTCTCCCAGCTGATGAATTGGGGACCTCGAGTAAACAAATTTTCCTAATCTTTCTGTTCAAGCGCCATCTAC | 0.742 RPM ratio (pull-down/input)
GATGATTGTTCTCCCAGCTGATGAATTACGTGTATCGAGTAAACAAATTTTCCTAATCTTTCTGTTCAAGCGCCATCTAC | 1.3 RPM ratio (pull-down/input)
GATGATTGTTCTCCCAGCTGATGAATTCTGTATTTCGAGTAAACAAATTTTCCTAATCTTTCTGTTCAAGCGCCATCTAC | 1.18 RPM ratio (pull-down/input)
GATGATTGTTCTCCCAGCTGATGAATTGCGCTTATCGAGTAAACAAATTTTCCTAATCTTTCTGTTCAAGCGCCATCTAC | 1.22 RPM ratio (pull-down/input)
GATGATTGTTCTCCCAGCTGATGAATTTTGACCTTCGAGTAAACAAATTTTCCTAATCTTTCTGTTCAAGCGCCATCTAC | 0.87 RPM ratio (pull-down/input)
GATGATTGTTCTCCCAGCTGATGAATTGTACGGCTCGAGTAAACAAATTTTCCTAATCTTTCTGTTCAAGCGCCATCTAC | 0.811 RPM ratio (pull-down/input)
GATGATTGTTCTCCCAGCTGATGAATTCGTAGCTTCGAGTAAACAAATTTTCCTAATCTTTCTGTTCAAGCGCCATCTAC | 0.906 RPM ratio (pull-down/input)
GATGATTGTTCTCCCAGCTGATGAATTAAGAGACTCGAGTAAACAAATTTTCCTAATCTTTCTGTTCAAGCGCCATCTAC | 0.798 RPM ratio (pull-down/input)
GATGATTGTTCTCCCAGCTGATGAATTCAGTCTATCGAGTAAACAAATTTTCCTAATCTTTCTGTTCAAGCGCCATCTAC | 0.905 RPM ratio (pull-down/input)
GATGATTGTTCTCCCAGCTGATGAATTCGGCGCCTCGAGTAAACAAATTTTCCTAATCTTTCTGTTCAAGCGCCATCTAC | 0.87 RPM ratio (pull-down/input)
GATGATTGTTCTCCCAGCTGATGAATTAACGGACTCGAGTAAACAAATTTTCCTAATCTTTCTGTTCAAGCGCCATCTAC | 0.8 RPM ratio (pull-down/input)
GATGATTGTTCTCCCAGCTGATGAATTGTGAAAATCGAGTAAACAAATTTTCCTAATCTTTCTGTTCAAGCGCCATCTAC | 1.27 RPM ratio (pull-down/input)
GATGATTGTTCTCCCAGCTGATGAATTGCACGCATCGAGTAAACAAATTTTCCTAATCTTTCTGTTCAAGCGCCATCTAC | 1.37 RPM ratio (pull-down/input)
GATGATTGTTCTCCCAGCTGATGAATTAATACAGTCGAGTAAACAAATTTTCCTAATCTTTCTGTTCAAGCGCCATCTAC | 0.993 RPM ratio (pull-down/input)
GATGATTGTTCTCCCAGCTGATGAATTTACAGATTCGAGTAAACAAATTTTCCTAATCTTTCTGTTCAAGCGCCATCTAC | 1.22 RPM ratio (pull-down/input)
GATGATTGTTCTCCCAGCTGATGAATTCCTCAGTTCGAGTAAACAAATTTTCCTAATCTTTCTGTTCAAGCGCCATCTAC | 0.81 RPM ratio (pull-down/input)
